Reference: PubChem BioAssay AID1461 (National Center for Advancing Translational Sciences (NCATS), 2008)
Screen size: about 220,000 compounds; about 2,300 (1%) were called active. Inconclusive means that the source gave no clear call. Such entries were picked first, then a sample of the others. Calls follow the shape of the dose curve; as a rule, active = well fitted inhibition curve with a large enough effect; inconclusive = small, poorly fitted or top-dose-only effect, or effect the other way; inactive = no such curve, though single readings can be large or run the other way. No potency is given beside an inconclusive call; the fits are too rough.

What follows are molecules tested against Neuropeptide S receptor (Homo sapiens) (UniProt Q6W5P4) (assay: qHTS Assay for Antagonists of the Neuropeptide S Receptor: cAMP Signal Transduction). Settings: CHO-NPSR cells, cAMP TR-FRET, antagonist mode; series mostly up to 38.3 µM.
UniProt Q6W5P4, sequence (Q6W5P4 whole entry, looked up): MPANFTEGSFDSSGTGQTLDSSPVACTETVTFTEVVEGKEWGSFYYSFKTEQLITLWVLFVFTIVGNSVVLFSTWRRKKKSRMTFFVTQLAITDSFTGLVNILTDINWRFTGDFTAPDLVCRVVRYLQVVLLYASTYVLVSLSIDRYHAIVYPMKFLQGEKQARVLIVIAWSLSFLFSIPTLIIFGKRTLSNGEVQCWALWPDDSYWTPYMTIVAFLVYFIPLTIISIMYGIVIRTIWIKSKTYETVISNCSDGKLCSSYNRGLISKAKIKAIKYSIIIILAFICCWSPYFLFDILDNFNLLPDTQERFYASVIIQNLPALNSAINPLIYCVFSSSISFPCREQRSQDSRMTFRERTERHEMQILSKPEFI
Also: nearly all actives have a fitted effect of over 50% in size.
Potency is read from the fitted curve at half-maximal effect; tags tell the direction and shape of the fitted curve.

Which Potency does the source give for `Cc1ccsc1/C=N/Nc1cccc(C(=O)O)c1` here?
Its Potency is “inactive”.

`CSc1c(CC(=O)Nc2ccc(F)cc2)n(Cc2ccccc2)c2ccccc12` was tested. Which Potency did it give?
Its Potency is “inactive”.

How did the Potency turn out when `CCCCSc1nnc(-c2ccccc2)c2ccccc12` was run?
The Potency was inconclusive [inhibitor, single point].

How did the Potency turn out when `COC(=O)c1ccc(/C=N/OCC(=O)NC2CCCCCCC2)cc1` was run?
Its Potency is inconclusive [inhibitor, single point].

`COc1ccc(N2C(=O)CC(Sc3nnc(-c4ccccc4)o3)C2=O)cc1` (configuration not stated) was tested. Which Potency did it give?
Its Potency is inconclusive [inhibitor, single point].

Which Potency does the source give for `CCOC(=O)c1c(CN2CCC(C)CC2)oc2ccc(OC)cc12` here?
Its Potency is inconclusive [inhibitor, single point].

Which Potency does the source give for `Cc1cc(NC(=O)c2ccc3c(c2)OCO3)ccc1NC(=O)c1ccco1` here?
The Potency was “inactive”.

With `Cc1nn(Cc2ccccc2Cl)c(C)c1NC(=O)NC12CC3CC(CC(C3)C1)C2` as the molecule, how does the Potency read?
Its Potency is inconclusive [inhibitor, partial curve].

How did the Potency turn out when `COC(=O)COc1cccc(NC(=O)c2ccccc2)c1` was run?
The Potency was “inactive”.

Which Potency does the source give for `COc1cc(Cl)c(C)cc1NC(=O)CSc1nnc(-c2ccco2)n1CC(C)C` here?
Its Potency is inconclusive [inhibitor, partial curve].

`COc1cc2c(cc1OC)C1=C(C#N)CC/C(=N\S(=O)(=O)c3cccc(Cl)c3)N1CC2` was tested. Which Potency did it give?
The Potency was inconclusive [inhibitor, partial curve].

With `Clc1ccc(/C(Cc2nc3ccccc3[nH]2)=N\Nc2ccccc2)cc1` as the molecule, how does the Potency read?
Its Potency is inconclusive [activator, partial curve].

`Cc1ccc(NC(=O)CSc2nc3ccccc3c(=O)n2CCCN2CCCCC2)cc1C` was tested. Which Potency did it give?
The Potency was inconclusive [inhibitor, partial curve].

Which Potency does the source give for `CC(=O)c1ccc(OCC(O)COc2ccc(C(C)=O)cc2)cc1` here?
The Potency was inconclusive [inhibitor, single point].

How did the Potency turn out when `COc1ccc(CCNC(=O)/C(=C/c2cccnc2)NC(=O)c2ccccc2)cc1OC` was run?
The Potency was “inactive”.

Which Potency does the source give for `[O-][n+]1onc2c1CCc1c-2nn(-c2ccccc2Cl)[n+]1[O-]` here?
Its Potency is inconclusive [inhibitor, partial curve, poor fit].

`COc1ccc(NS(=O)(=O)c2ccc(OC)c(N(C)S(=O)(=O)c3ccc(Cl)cc3)c2)cc1` was tested. Which Potency did it give?
The Potency was inconclusive [inhibitor, single point].

With `Cc1cccc(/C=C(\c2nc3ccccc3[nH]2)S(=O)(=O)c2ccccc2)c1` as the molecule, how does the Potency read?
The Potency was active: 7.94 µM.

With `Cc1ccc2[nH]c3c(=S)nc[nH]c3c2c1` as the molecule, how does the Potency read?
Its Potency is “inactive”.

How did the Potency turn out when `CCC(=O)Nc1cccc(Br)c1` was run?
The Potency was “inactive”.

How did the Potency turn out when `FC(F)(F)c1cccc(NC(=S)NCc2ccc(Cl)cc2)c1` was run?
Its Potency is inconclusive [inhibitor, single point].

How did the Potency turn out when `NC(=O)c1ccc(N2CCN(c3ccc(O)cc3)CC2)c([N+](=O)[O-])c1` was run?
The Potency was “inactive”.

How did the Potency turn out when `O=C(COC(=O)c1cc([N+](=O)[O-])ccc1NCc1ccccc1)NC1CCCc2ccccc21` (configuration not stated) was run?
Its Potency is inconclusive [inhibitor, partial curve].

Which Potency does the source give for `COC(=O)C(=C/C(C)=C/c1cccs1)C(=O)OC` here?
Its Potency is inconclusive [activator, partial curve].

How did the Potency turn out when `CCOC(=O)c1ccc(NC(=O)CSc2nnc(-c3cccs3)n2CC)cc1` was run?
Its Potency is inconclusive [inhibitor, single point].

For `N#Cc1c(N)c(C#N)c(-c2ccc3c(c2)OCO3)c2c1CCCC2`, which Potency is on record?
The Potency was inconclusive [inhibitor, partial curve, poor fit].

With `CCCCCCCNC(=O)COc1ccc2c(c1)C(=O)CC(C)(C)O2` as the molecule, how does the Potency read?
Its Potency is inconclusive [inhibitor, single point].

For `Cc1noc(NS(=O)(=O)c2ccc(N3C(=O)c4ccccc4C3=O)cc2)c1C`, which Potency is on record?
Its Potency is inconclusive [activator, partial curve].

With `CC1CCCC(NC(=O)COC(=O)Cc2ccc(Br)cc2)C1C` (configuration not stated) as the molecule, how does the Potency read?
The Potency was “inactive”.

How did the Potency turn out when `Cn1c(/N=C/c2ccc3c(c2)OCO3)nc2ccccc21` was run?
Its Potency is “inactive”.

How did the Potency turn out when `Cc1ccc(Nc2c([N+](=O)[O-])ccc3c2=NC2(CCCCC2)N=3)cc1` was run?
The Potency was inconclusive [inhibitor, single point].

How did the Potency turn out when `CCOC(=O)c1cnc(Nc2nc3ccccc3o2)nc1CSC(=S)N(CC)CC` was run?
Its Potency is active: 0.501 µM.

`CCc1cc(-c2n[nH]c(=S)n2-c2cccc(C)c2)cs1` was tested. Which Potency did it give?
The Potency was inconclusive [inhibitor, single point].

For `COc1ccc(/C=N/n2c(N)nc(-c3ccccc3)c2-c2ccccc2)cc1`, which Potency is on record?
Its Potency is inconclusive [inhibitor, single point].

Which Potency does the source give for `CCCCOc1ccccc1C1C(C(=O)OC)=CN(CC)C=C1C(=O)OC` here?
Its Potency is inconclusive [inhibitor, partial curve, poor fit].

Which Potency does the source give for `COc1ccc(CCNC(=O)Nc2ccc([N+](=O)[O-])cc2)cc1OC` here?
The Potency was “inactive”.

Which Potency does the source give for `C=CCn1c(=NC(=O)c2sc3ccccc3c2Cl)sc2cc(S(N)(=O)=O)ccc21` here?
The Potency was inconclusive [inhibitor, single point].

For `CCCC/C(O)=C1\C(=O)CC(C)(C)CC1=Nc1ccc(OC)cc1`, which Potency is on record?
The Potency was inconclusive [inhibitor, partial curve].

How did the Potency turn out when `C/C(=N\OCC(=O)NC12CC3CC(CC(C3)C1)C2)c1cc2ccccc2o1` was run?
The Potency was inconclusive [inhibitor, single point].

How did the Potency turn out when `O=C(Cc1c(F)c(F)c(F)c(F)c1F)OC12CC3CC(C1)C(=O)C(C3)C2` was run?
The Potency was inconclusive [inhibitor, partial curve].

Which Potency does the source give for `COC(=O)C1=C(C)NC(C)=C([N+](=O)[O-])C1c1ccccc1C(F)(F)F` (configuration not stated) here?
The Potency was inconclusive [inhibitor, partial curve].

`O=c1[nH]c(SCc2ccc(Cl)cc2)nc2ccsc12` was tested. Which Potency did it give?
The Potency was “inactive”.

For `S=c1[nH]nc(-c2ccco2)n1/N=C/C=C/c1ccco1`, which Potency is on record?
The Potency was “inactive”.

For `O=C(Nc1ccc(Nc2ccccc2)cc1)C(Cl)(Cl)Cl`, which Potency is on record?
Its Potency is “inactive”.

`Cc1cc(N2C(=O)C(O)=C(C(=O)c3cccs3)C2c2ccccc2)no1` (configuration not stated) was tested. Which Potency did it give?
The Potency was inconclusive [activator, partial curve].

How did the Potency turn out when `COC(=O)c1ccc(CSc2ccc3nnc(-c4cccc(F)c4)n3n2)o1` was run?
The Potency was inconclusive [inhibitor, partial curve, poor fit].

Which Potency does the source give for `Cc1cc(C(C)(C)C)ccc1OCCCCN1CCCC1` here?
Its Potency is “inactive”.

`Clc1nc2c(-c3ccccc3)nnn2c2ccccc12` was tested. Which Potency did it give?
Its Potency is inconclusive [inhibitor, single point].

With `Cc1ccc2nc(SCC(=O)Nc3cc(C(C)(C)C)nn3-c3ccccc3)[nH]c2c1` as the molecule, how does the Potency read?
Its Potency is inconclusive [inhibitor, single point].

`Cc1ccc(N(Cc2cc3ccc(C)cc3[nH]c2=O)C(=O)c2cccs2)cc1` was tested. Which Potency did it give?
The Potency was inconclusive [inhibitor, single point].

`CCN1C(=O)/C(=C\C=C2/C=CC=CN2CC)SC1=S` was tested. Which Potency did it give?
Its Potency is “inactive”.

With `O=C1N/C(=C/c2cccn2-c2ccc(F)cc2)C(=O)N1Cc1ccccc1` as the molecule, how does the Potency read?
The Potency was “inactive”.

How did the Potency turn out when `Cc1cccc(C)c1OCC(=O)N1CC2(C)CC1CC(C)(C)C2` (configuration not stated) was run?
The Potency was inconclusive [activator, single point].

For `CC1=NN2C(=N)/C(=C\c3cc(C)n(Cc4ccccc4)c3C)C(=O)N=C2S1`, which Potency is on record?
The Potency was inconclusive [inhibitor, single point].

`Cn1c(-c2ccccc2)cnc1SCC(=O)N1CCCc2ccccc21` was tested. Which Potency did it give?
The Potency was “inactive”.

How did the Potency turn out when `Cc1ccc2c(Cl)c(C(=O)Nc3cc(C)on3)sc2c1` was run?
Its Potency is inconclusive [inhibitor, single point].

How did the Potency turn out when `CCOC(=O)C1=NN(c2ccc(Cl)cc2)/C(=C/C2=NCCc3cc(OC)c(OC)cc32)S1` was run?
Its Potency is inconclusive [activator, single point].

Which Potency does the source give for `O=C1C=C(c2ccccc2)C(=O)N1Nc1ccccc1` here?
The Potency was active: 12.6 µM.

For `Nc1ccc(/C=C/c2ccc3ncccc3c2)cc1`, which Potency is on record?
The Potency was “inactive”.

Which Potency does the source give for `O=C1CC(N2CCN(Cc3ccc4c(c3)OCO4)CC2)C(=O)N1c1ccccc1` (configuration not stated) here?
Its Potency is inconclusive [inhibitor, full curve, poor fit].

`Cc1nnc(SCC(=O)N2c3ccccc3C(C)(c3ccccc3)CC2(C)C)s1` (configuration not stated) was tested. Which Potency did it give?
The Potency was inconclusive [inhibitor, single point].

For `COC(=O)c1c(NC(=O)CSc2nnnn2-c2ccccc2)sc2c1CCCC2`, which Potency is on record?
Its Potency is inconclusive [inhibitor, single point].

`Cc1nn(-c2ccccc2)c(C)c1CCC(=O)O` was tested. Which Potency did it give?
Its Potency is “inactive”.

`CCOc1ccc(N=c2scc(-c3ccc(OC)cc3)n2CCO)cc1` was tested. Which Potency did it give?
Its Potency is inconclusive [inhibitor, single point].

With `O=C(CCCn1c(=S)[nH]c2cc3c(cc2c1=O)OCO3)N1CCN(c2ccc(F)cc2)CC1` as the molecule, how does the Potency read?
The Potency was “inactive”.

How did the Potency turn out when `CC(C(=O)Nc1sc2c(c1C(=O)NCC1CCCO1)CCC2)N1C(=O)c2ccccc2C1=O` (configuration not stated) was run?
The Potency was “inactive”.

Which Potency does the source give for `Nc1cc(C(F)(F)F)cc([N+](=O)[O-])c1N` here?
The Potency was “inactive”.

For `O=C(CNC(=O)C1COc2ccccc2O1)N/N=C/c1ccc(O)cc1O` (configuration not stated), which Potency is on record?
Its Potency is “inactive”.

How did the Potency turn out when `O=C(Nc1ccc([N+](=O)[O-])cc1)Nc1nc(-c2ccc(Cl)s2)cs1` was run?
Its Potency is active: 6.31 µM.

`COc1ccc(OC)c(NC(=O)c2sc3nc(Cc4ccccc4)cc(C(F)(F)F)c3c2N)c1` was tested. Which Potency did it give?
Its Potency is inconclusive [inhibitor, single point].

For `Cc1ccc(CSc2nnc(-c3cccc(S(=O)(=O)N4CCOCC4)c3)n2C2CCCC2)cc1`, which Potency is on record?
The Potency was inconclusive [inhibitor, single point].

With `COCCN(C(=O)Cc1cccs1)C(C(=O)NCc1ccc(OC)cc1)c1ccc(C)cc1` (configuration not stated) as the molecule, how does the Potency read?
Its Potency is “inactive”.
